# Experimental data reported in PMC4336329 (PLoS ONE, 2015).
# The campaign covered roughly 310,000 compounds. About 2,200 (0.71%) showed an effect of 50% or more. Effects have a minus sign here. This is one part of the list.
# Target: human ether-à-go-go-related gene (hERG) potassium channel (human, UniProt Q12809)
# Experiment: primary screen, population patch clamp on CHO cells stably expressing hERG
# Chain of human ether-à-go-go-related gene (hERG) potassium channel (Q12809 whole entry, looked up): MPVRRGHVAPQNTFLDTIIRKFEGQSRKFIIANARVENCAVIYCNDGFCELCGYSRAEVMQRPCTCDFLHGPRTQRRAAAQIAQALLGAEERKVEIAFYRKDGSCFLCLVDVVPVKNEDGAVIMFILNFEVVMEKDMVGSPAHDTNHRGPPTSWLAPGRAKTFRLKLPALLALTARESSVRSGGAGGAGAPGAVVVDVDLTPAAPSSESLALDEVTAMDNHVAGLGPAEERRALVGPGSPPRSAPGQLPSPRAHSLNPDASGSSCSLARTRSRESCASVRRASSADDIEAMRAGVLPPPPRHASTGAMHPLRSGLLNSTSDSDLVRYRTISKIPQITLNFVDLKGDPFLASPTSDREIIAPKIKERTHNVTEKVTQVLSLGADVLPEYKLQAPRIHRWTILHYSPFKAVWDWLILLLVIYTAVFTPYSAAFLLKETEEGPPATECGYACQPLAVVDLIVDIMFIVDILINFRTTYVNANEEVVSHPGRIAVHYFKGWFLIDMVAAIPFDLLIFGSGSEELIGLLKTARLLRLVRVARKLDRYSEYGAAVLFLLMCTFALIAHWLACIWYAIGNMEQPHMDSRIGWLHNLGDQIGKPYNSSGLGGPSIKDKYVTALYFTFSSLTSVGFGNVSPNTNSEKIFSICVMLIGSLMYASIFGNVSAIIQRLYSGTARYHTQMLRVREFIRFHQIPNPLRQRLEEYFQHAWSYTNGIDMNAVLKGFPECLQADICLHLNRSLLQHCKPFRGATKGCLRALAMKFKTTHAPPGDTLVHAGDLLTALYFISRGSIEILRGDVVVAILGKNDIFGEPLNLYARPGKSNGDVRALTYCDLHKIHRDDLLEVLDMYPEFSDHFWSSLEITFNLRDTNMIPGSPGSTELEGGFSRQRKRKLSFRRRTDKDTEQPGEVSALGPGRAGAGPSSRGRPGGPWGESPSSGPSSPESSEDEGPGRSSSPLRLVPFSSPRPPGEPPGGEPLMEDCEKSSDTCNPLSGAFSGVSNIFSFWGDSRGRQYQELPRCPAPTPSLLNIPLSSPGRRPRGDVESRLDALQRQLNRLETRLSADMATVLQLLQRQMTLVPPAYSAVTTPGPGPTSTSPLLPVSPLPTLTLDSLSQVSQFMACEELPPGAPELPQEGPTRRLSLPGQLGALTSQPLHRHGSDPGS
row,SMILES,"hERG current change (%, negative = inhibition) at 1uM [%]"
1,COc1cc(C(O)P(=O)(OCCC(C)C)c2ccc(N(C)C)cc2)cc(OC)c1OC (centres unmarked),10.7
2,Cc1ccc(C(C)C)c(OCCNS(C)(=O)=O)c1,9.91
3,COc1ccc(C(=O)Nn2c(SCC(=O)N3CCC(C)CC3)nc3ccccc3c2=O)cc1,0.232
4,COc1ccc(N2CCN(c3oc(COc4ccccc4Cl)nc3C#N)CC2)cc1,16.7
5,Cc1ccc(S(=O)(=O)N2CCCCC2C(=O)O)cc1 (centres unmarked),8.79
6,O=C(c1c(O)c2ccccc2oc1=O)C1CCC1,4.07
7,CC1(C)Cc2c(sc3ncn4c(=S)[nH]nc4c23)CO1,22.8
8,CCCn1c(=N)n(CCOc2ccc(OC)cc2)c2ccccc21,-22
9,CCOc1ccc(NC(=O)CCC(=O)OC)cc1,1.46
10,COc1ccc(C(=O)Nc2cnc(NC(=O)c3cccs3)cc2C)cc1,7.72
11,O=C(O)c1cccc2sc3cc(Cl)ccc3c(=O)c12,8.42
12,O=S(=O)(Nc1ccc(Cc2ccncc2)cc1)c1ccc(Cl)cc1,12
13,CC1=C(C#N)C(NC(=O)C2CC2)(C(F)(F)F)C(=O)N1 (centres unmarked),5.98
14,CC(C)c1ccc(N(C(=O)c2csnn2)C(C(=O)NC(C)(C)C)c2ccncc2)cc1 (centres unmarked),-2.31
15,Cc1csc(SCC(=O)Nc2nc(-c3ccccc3)cs2)n1,-1.95
16,O=C(COC(=O)c1cccc(S(=O)(=O)N2CCCC2)c1)Nc1ccccc1,14.2
17,O=C(Nc1ccccc1)N(CCCN1CCOCC1)Cc1cc2cc3c(cc2[nH]c1=O)OCCO3,9.12
18,Cc1nn(C)c(C(=O)Nc2cccc(CN3CCOCC3)c2)c1Br,3.96
19,Cc1cc(NC(=O)c2cc(-c3ccc(Br)cc3)on2)no1,15.5
20,COc1ccc(C(=O)N2CCN(c3nc(C4CC4)nc4sc(C)c(C)c34)CC2)cc1.Cl,12
21,OCCN(CCO)c1ncnc2c1oc1ccc(Br)cc12,-6.35
22,COc1ccc(NC(=O)COC(=O)CNC(=O)C2CCCCC2)cc1,10.5

row,SMILES,"hERG current change (%, negative = inhibition) at 1uM [%]"
1,O=C1/C(=C\c2cccnc2)SC(=S)N1c1ccc(F)cc1,7.73
2,Cc1ccc(C)c(N2CCN(C(=O)CCCCCn3c(=S)[nH]c4ccc(N5CCOCC5)cc4c3=O)CC2)c1,10.5
3,OC(c1ccccc1)c1nccc2ccccc12 (centres unmarked),4.12
4,COCCn1nnnc1C(C(C)C)N1CCC(Cc2ccccc2)CC1.Cl (centres unmarked),-28.5
5,CN(/C(=N\S(=O)(=O)c1ccccc1)c1ccccc1)c1ccc(O)cc1,4.72
6,CCOC(=O)C1CCN(C(=O)C(C)Sc2ccc(Cl)cc2)CC1 (centres unmarked),12.3
7,CCCc1nn2c(=O)cc(COc3ccc(NC(=O)c4ccco4)cc3)nc2s1,-8.38
8,Cn1nnc2cc(C(=O)NC3CC3)ccc21,0.525
9,CCCNC(=O)c1[nH]c(C)c(C(C)=O)c1C,22
10,CCC(CC)C(=O)N1CC(=O)Nc2ccc(Br)cc2C1c1ccccc1 (centres unmarked),-4.08
11,Cc1cc([N+](=O)[O-])nn1CCCC(=O)Nc1sc2c(c1C(N)=O)CCCC2,-6.57
12,CCOc1ccc(CCNC(=O)CCn2ccc3cc(S(=O)(=O)N4CCCC4)ccc32)cc1,7.28
13,COc1ccc(C(=O)Nc2ccc(Cc3ccncc3)cc2)cc1Br,9.56
14,O=C(Nc1cccnc1)OC1CCCC1,22
15,CCCOC(=S)Nc1ccccc1,9.91
16,COc1ccc2[nH]c(=O)c(CN(C(=O)c3cccnc3)c3ccccc3C)cc2c1,11.6
17,O=C(/C=C/c1ccc(Cl)cc1Cl)NCCSc1ccccc1,16.7
18,CCOc1ccc(N=C2NC(=O)C(CC(=O)Nc3ccc(OC)cc3)S2)cc1 (centres unmarked),11.7
19,COc1ccc(C(=O)/C=C/Nc2cc(C)on2)cc1,14.1
20,Cc1ccc2cc(CCNC(=O)c3ccc(S(=O)(=O)N4CCOCC4)cc3)c(=O)[nH]c2c1C,11.8
21,Cc1cccc(C)c1NC(=S)NCc1ccncc1,16
22,Cc1ccc(N(Cc2ccccc2)C(=O)c2cccc(S(=O)(=O)N3CC(C)OC(C)C3)c2)cc1 (centres unmarked),15.1
